This note sets out measurements from the supplement of paper PMC10126150.

Values marked as one replicate rest on one cluster of the flow cell; about a third of the high ones do not repeat.
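Also: ATP exposure 15 min at 22 °C before imaging.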

The data set concerns ATP. Briefly: switch fluorescence ratio, 500 uM ATP over buffer (Cy3 cluster intensity, sum of 5 cycles each) (fold (ratio)); higher = stronger signal-on switching upon ATP binding; sequences stand for … in TCGTCGGCAGCGTCAGATGTGTATAAGAGACAGTTTTTTTTTTTTTTTTTTTTTTTTT…TC. Particulars: aptamer strand: ATP DNA aptamer (quencher-CACCTGGGGGAGTATTGCGGAGGAAGG + anchor), 100 nM annealed; ATP concentration: 500 uM; one replicate. The procedure, abridged:
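Cy3-labelled switching-strand clusters on a modified Illumina MiSeq flow-cell were annealed to 100 nM quencher-labelled ATP aptamer and imaged first in selection buffer, then after 15 min with 500 uM ATP at 22 °C. NaOH stripping and re-annealing separated each of five buffer/ATP cycles, and clusters outside 100-1000 RFU were excluded. The fluorescence ratio sums target-cycle Cy3 intensity over buffer-cycle Cy3 intensity per cluster and averages it per switch-domain sequence.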
With AACTACAATT, the switch fluorescence ratio came out at 1.09. Next, TACGCTCTT: 1.07; CGAAGGAAGT: 0.988; TTGTTCCGTC: 1.05. The same measure for CATTTAAACA: 0.99; for ATTACTTGCT: 1.03. Next, TTAAAAATA: 1; CTTTGTTGTA: 0.973; ACTTCGTCTG: 1.16.

Turning to CTGGGTAGAA, the switch fluorescence ratio is 1.03.

Turning to CCATTTATAT, the switch fluorescence ratio was 1. The same measure for TTTATTATTC: 1.01. The same measure for ACAAGGTGT: 1.28; for TTCCCGAGGG: 1.01. For CAAGTGCACG, the switch fluorescence ratio came to 1.06. The same measure for GCAGGTACCC: 1; for GCATAGGT: 1.05. Next, ATAAGCACGA: 1.18; GAACTAGTC: 0.92; GCTTAGTTTG: 0.984. On to TATTGAATGT, for which the switch fluorescence ratio was 0.966. The same measure for AGGTATCGGA: 0.978.

Consider CAGCATTTCA, for which the switch fluorescence ratio was found to be 1.04. Next, GGTACATCTT: 1.02; GATCAGCACC: 1.12.

As for GTGAGTTATC, the switch fluorescence ratio was determined as 1.04. Next, TAGCAGCAGC: 0.981; CACGTCATGG: 1.21. The same measure for GGAAGTACCG: 1.08; for TTGCAGTTTG: 0.957; for TTTCGATTAG: 1.06. The same measure for AGTAGGCGAC: 1.02; for ACGGAGCCCT: 1.2. In the case of TTTCGACCGT, the switch fluorescence ratio was determined as 1.01. The same measure for GGATGTGGCG: 1.04; for GCTCAAGCA: 1.01.

In the case of TAGGTGGT, the switch fluorescence ratio was determined as 1.02. The same measure for TGATCGTACG: 1.02. Next, TAGATTACTC: 0.987; GATGTTTGTT: 0.976; ATCTTATGGT: 0.96. The same measure for GAGATTTACT: 1; for AGCTTCA: 1.12. For GTTTAGGATG, the switch fluorescence ratio amounted to 1.01. The same measure for TCTGGGGAAC: 0.984; for AGGCGTATAT: 1.03.

With ACAGACAATA, the switch fluorescence ratio came to 1.11.

Regarding CCATGCAGGA, the switch fluorescence ratio stood at 0.991. The same measure for TGGTCGAGGT: 1.02. Consider TCCCGGGTTG, for which the switch fluorescence ratio is 2.59. Next, GGAATACAAA: 0.979; TTGACATACC: 1.33; GTTGTAGCCC: 0.99. With AGACATGTGA, the switch fluorescence ratio is 0.94. The same measure for TGATTTAGGG: 1.04. Next, GCCATTTTCG: 0.997.

Turning to TACACGCAGA, the switch fluorescence ratio worked out at 1.1. The same measure for CGTTCCAATG: 1.15.

Turning to TCCTGAGAG, the switch fluorescence ratio stood at 0.989.

Regarding ATTACGCCTT, the switch fluorescence ratio came to 1.08. TCGGGACTTT: the switch fluorescence ratio amounted to 0.995. The same measure for GAAAGAAGAA: 0.994. Next, AACCGACCTT: 1.54; CACTTTCTAA: 0.989; CGCCTACGTG: 1.02. As for TCCTATCAGC, the switch fluorescence ratio was determined as 1.16. The same measure for TGTTTGGGAT: 1.01; for GCCCGACCGC: 1.95.

Turning to TGGATCCCGC, the switch fluorescence ratio was 1.08. In the case of CATCCAAGG, the switch fluorescence ratio is 1.14. On to AAGAGGGTG, for which the switch fluorescence ratio was 1.1. The same measure for ATGTTGAGTA: 0.982; for TAAAAAG: 0.982; for AACCGTATCT: 1.09. The same measure for CGATGCGGCC: 1.2. Next, AAGTGTCCGC: 1.03; CTAGGAAACT: 1.05. Consider ACCGATATGG, for which the switch fluorescence ratio is 0.989. The same measure for ACTTAAATAG: 1.02.
